Results on 12 sequences are retold here after the supplement of paper PMC12230231.

± gives the standard deviation of the averaged measurements. Restriction of a single-cycle SIVsab GFP reporter by TRIM5α v1-loop variants in CRFK cells. Human variants: read share among cells still uninfected after two challenges over input, higher = gained restriction. Rhesus variants: share among infected cells over input, higher = lost restriction. Reporter dose not given per row. No active / inactive call per row; the paper calls a change when both replicates lie above its controls (mean + 2 SD of stop or wild-type variants, or the top frameshift score). Residues outside the varied loop are taken from Swiss-Prot. The paper reads the human single-substitution scores as noise; they and the rhesus combinations repeat poorly (rank correlation 0.3 to 0.4), indel scores repeat only for the top variants, rhesus substitutions well (0.9).

The data set relates to SIVsab (simian immunodeficiency virus of sabaeus monkeys), single-cycle GFP reporter, in CRFK cells. The data set can be described thus: enrichment among infected cells over input (fold); higher = weaker restriction. The settings on record: library: human / rhesus combinations. How it is done:
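Pools of CRFK cells expressing variants of the TRIM5α v1 loop were challenged with the single-cycle reporter, sorted by GFP and sequenced; mean of two replicates.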
Turning to “MASGILLNVKEEVTCPICLELLTEPLSLHCGHSFCQACITANHKKSMLYKEGERSCPVCRISYQPENIQPNRHVANIVEKLREVKLSPEEGQKVDHCARHGEKLLLFCQEDSKVICWLCERSQEHRGHHTFLMEEVAQEYHVKLQTALEMLRQKQQEAEKLEADIREEKASWKIQIDYDKTNVSADFEQLREILDWEESNELQNLEKEEEDILKSLTKSETEMVQQTQYMRELISELEHRLQGSMMDLLQGVDGIIKRIENMTLKKPKTFHKNQRRVFRAPDLKGMLDMFRELTDARRYWVDVTLAPNNISHAVIAEDKRQVSSRNPQIMYGARGTLYTFQTLVNFNYCTGVLGSQSITSGKHYWEVDVSKKSAWILGVCAGFQSDAMYNIEQNENYQPKYGYWVIGLQEGVKYSVFQDGSSHTPFAPFIVPLSVIICPDRVGVFVDYEACTVSFFNITNHGFLIYKFSQCSFSKPVFPYLNPRKCTVPMTLCSPSS [rhesus TRIM5α, 332-344 = GARGTLYTFQTLV]”, the enrichment was found to be 0.517 ± 0.099.

Consider “MASGILLNVKEEVTCPICLELLTEPLSLHCGHSFCQACITANHKKSMLYKEGERSCPVCRISYQPENIQPNRHVANIVEKLREVKLSPEEGQKVDHCARHGEKLLLFCQEDSKVICWLCERSQEHRGHHTFLMEEVAQEYHVKLQTALEMLRQKQQEAEKLEADIREEKASWKIQIDYDKTNVSADFEQLREILDWEESNELQNLEKEEEDILKSLTKSETEMVQQTQYMRELISELEHRLQGSMMDLLQGVDGIIKRIENMTLKKPKTFHKNQRRVFRAPDLKGMLDMFRELTDARRYWVDVTLAPNNISHAVIAEDKRQVSSRNPQIMYGARGTRFPSFTNFNYCTGVLGSQSITSGKHYWEVDVSKKSAWILGVCAGFQSDAMYNIEQNENYQPKYGYWVIGLQEGVKYSVFQDGSSHTPFAPFIVPLSVIICPDRVGVFVDYEACTVSFFNITNHGFLIYKFSQCSFSKPVFPYLNPRKCTVPMTLCSPSS [rhesus TRIM5α, 332-344 = GARGTRFPSFT]”, for which the enrichment was determined as 0.718 ± 0.72.

With “MASGILLNVKEEVTCPICLELLTEPLSLHCGHSFCQACITANHKKSMLYKEGERSCPVCRISYQPENIQPNRHVANIVEKLREVKLSPEEGQKVDHCARHGEKLLLFCQEDSKVICWLCERSQEHRGHHTFLMEEVAQEYHVKLQTALEMLRQKQQEAEKLEADIREEKASWKIQIDYDKTNVSADFEQLREILDWEESNELQNLEKEEEDILKSLTKSETEMVQQTQYMRELISELEHRLQGSMMDLLQGVDGIIKRIENMTLKKPKTFHKNQRRVFRAPDLKGMLDMFRELTDARRYWVDVTLAPNNISHAVIAEDKRQVSSRNPQIMYGARGTRFPSLTNFNYCTGVLGSQSITSGKHYWEVDVSKKSAWILGVCAGFQSDAMYNIEQNENYQPKYGYWVIGLQEGVKYSVFQDGSSHTPFAPFIVPLSVIICPDRVGVFVDYEACTVSFFNITNHGFLIYKFSQCSFSKPVFPYLNPRKCTVPMTLCSPSS [rhesus TRIM5α, 332-344 = GARGTRFPSLT]”, the enrichment is 4.63 ± 3.6.

Regarding “MASGILLNVKEEVTCPICLELLTEPLSLHCGHSFCQACITANHKKSMLYKEGERSCPVCRISYQPENIQPNRHVANIVEKLREVKLSPEEGQKVDHCARHGEKLLLFCQEDSKVICWLCERSQEHRGHHTFLMEEVAQEYHVKLQTALEMLRQKQQEAEKLEADIREEKASWKIQIDYDKTNVSADFEQLREILDWEESNELQNLEKEEEDILKSLTKSETEMVQQTQYMRELISELEHRLQGSMMDLLQGVDGIIKRIENMTLKKPKTFHKNQRRVFRAPDLKGMLDMFRELTDARRYWVDVTLAPNNISHAVIAEDKRQVSSRNPQIMYGARGTRFPSLVNFNYCTGVLGSQSITSGKHYWEVDVSKKSAWILGVCAGFQSDAMYNIEQNENYQPKYGYWVIGLQEGVKYSVFQDGSSHTPFAPFIVPLSVIICPDRVGVFVDYEACTVSFFNITNHGFLIYKFSQCSFSKPVFPYLNPRKCTVPMTLCSPSS [rhesus TRIM5α, 332-344 = GARGTRFPSLV]”, the enrichment is 1.56 ± 0.42.

With “MASGILLNVKEEVTCPICLELLTEPLSLHCGHSFCQACITANHKKSMLYKEGERSCPVCRISYQPENIQPNRHVANIVEKLREVKLSPEEGQKVDHCARHGEKLLLFCQEDSKVICWLCERSQEHRGHHTFLMEEVAQEYHVKLQTALEMLRQKQQEAEKLEADIREEKASWKIQIDYDKTNVSADFEQLREILDWEESNELQNLEKEEEDILKSLTKSETEMVQQTQYMRELISELEHRLQGSMMDLLQGVDGIIKRIENMTLKKPKTFHKNQRRVFRAPDLKGMLDMFRELTDARRYWVDVTLAPNNISHAVIAEDKRQVSSRNPQIMYGARGTRFQSFTNFNYCTGVLGSQSITSGKHYWEVDVSKKSAWILGVCAGFQSDAMYNIEQNENYQPKYGYWVIGLQEGVKYSVFQDGSSHTPFAPFIVPLSVIICPDRVGVFVDYEACTVSFFNITNHGFLIYKFSQCSFSKPVFPYLNPRKCTVPMTLCSPSS [rhesus TRIM5α, 332-344 = GARGTRFQSFT]”, the enrichment came out at 3.57 ± 4.1.

For “MASGILLNVKEEVTCPICLELLTEPLSLHCGHSFCQACITANHKKSMLYKEGERSCPVCRISYQPENIQPNRHVANIVEKLREVKLSPEEGQKVDHCARHGEKLLLFCQEDSKVICWLCERSQEHRGHHTFLMEEVAQEYHVKLQTALEMLRQKQQEAEKLEADIREEKASWKIQIDYDKTNVSADFEQLREILDWEESNELQNLEKEEEDILKSLTKSETEMVQQTQYMRELISELEHRLQGSMMDLLQGVDGIIKRIENMTLKKPKTFHKNQRRVFRAPDLKGMLDMFRELTDARRYWVDVTLAPNNISHAVIAEDKRQVSSRNPQIMYGARGTRFQSFVNFNYCTGVLGSQSITSGKHYWEVDVSKKSAWILGVCAGFQSDAMYNIEQNENYQPKYGYWVIGLQEGVKYSVFQDGSSHTPFAPFIVPLSVIICPDRVGVFVDYEACTVSFFNITNHGFLIYKFSQCSFSKPVFPYLNPRKCTVPMTLCSPSS [rhesus TRIM5α, 332-344 = GARGTRFQSFV]”, the enrichment was found to be 2.82 ± 3.2.

“MASGILLNVKEEVTCPICLELLTEPLSLHCGHSFCQACITANHKKSMLYKEGERSCPVCRISYQPENIQPNRHVANIVEKLREVKLSPEEGQKVDHCARHGEKLLLFCQEDSKVICWLCERSQEHRGHHTFLMEEVAQEYHVKLQTALEMLRQKQQEAEKLEADIREEKASWKIQIDYDKTNVSADFEQLREILDWEESNELQNLEKEEEDILKSLTKSETEMVQQTQYMRELISELEHRLQGSMMDLLQGVDGIIKRIENMTLKKPKTFHKNQRRVFRAPDLKGMLDMFRELTDARRYWVDVTLAPNNISHAVIAEDKRQVSSRNPQIMYGARGTRFQSLTNFNYCTGVLGSQSITSGKHYWEVDVSKKSAWILGVCAGFQSDAMYNIEQNENYQPKYGYWVIGLQEGVKYSVFQDGSSHTPFAPFIVPLSVIICPDRVGVFVDYEACTVSFFNITNHGFLIYKFSQCSFSKPVFPYLNPRKCTVPMTLCSPSS [rhesus TRIM5α, 332-344 = GARGTRFQSLT]”: the enrichment was determined as 1.34 ± 0.36.

In the case of “MASGILLNVKEEVTCPICLELLTEPLSLHCGHSFCQACITANHKKSMLYKEGERSCPVCRISYQPENIQPNRHVANIVEKLREVKLSPEEGQKVDHCARHGEKLLLFCQEDSKVICWLCERSQEHRGHHTFLMEEVAQEYHVKLQTALEMLRQKQQEAEKLEADIREEKASWKIQIDYDKTNVSADFEQLREILDWEESNELQNLEKEEEDILKSLTKSETEMVQQTQYMRELISELEHRLQGSMMDLLQGVDGIIKRIENMTLKKPKTFHKNQRRVFRAPDLKGMLDMFRELTDARRYWVDVTLAPNNISHAVIAEDKRQVSSRNPQIMYGARGTRFQSLVNFNYCTGVLGSQSITSGKHYWEVDVSKKSAWILGVCAGFQSDAMYNIEQNENYQPKYGYWVIGLQEGVKYSVFQDGSSHTPFAPFIVPLSVIICPDRVGVFVDYEACTVSFFNITNHGFLIYKFSQCSFSKPVFPYLNPRKCTVPMTLCSPSS [rhesus TRIM5α, 332-344 = GARGTRFQSLV]”, the enrichment was 30.5 ± 41.

In the case of “MASGILLNVKEEVTCPICLELLTEPLSLHCGHSFCQACITANHKKSMLYKEGERSCPVCRISYQPENIQPNRHVANIVEKLREVKLSPEEGQKVDHCARHGEKLLLFCQEDSKVICWLCERSQEHRGHHTFLMEEVAQEYHVKLQTALEMLRQKQQEAEKLEADIREEKASWKIQIDYDKTNVSADFEQLREILDWEESNELQNLEKEEEDILKSLTKSETEMVQQTQYMRELISELEHRLQGSMMDLLQGVDGIIKRIENMTLKKPKTFHKNQRRVFRAPDLKGMLDMFRELTDARRYWVDVTLAPNNISHAVIAEDKRQVSSRNPQIMYGARGTRFQTFTNFNYCTGVLGSQSITSGKHYWEVDVSKKSAWILGVCAGFQSDAMYNIEQNENYQPKYGYWVIGLQEGVKYSVFQDGSSHTPFAPFIVPLSVIICPDRVGVFVDYEACTVSFFNITNHGFLIYKFSQCSFSKPVFPYLNPRKCTVPMTLCSPSS [rhesus TRIM5α, 332-344 = GARGTRFQTFT]”, the enrichment was 1.62 ± 1.7.

Turning to “MASGILLNVKEEVTCPICLELLTEPLSLHCGHSFCQACITANHKKSMLYKEGERSCPVCRISYQPENIQPNRHVANIVEKLREVKLSPEEGQKVDHCARHGEKLLLFCQEDSKVICWLCERSQEHRGHHTFLMEEVAQEYHVKLQTALEMLRQKQQEAEKLEADIREEKASWKIQIDYDKTNVSADFEQLREILDWEESNELQNLEKEEEDILKSLTKSETEMVQQTQYMRELISELEHRLQGSMMDLLQGVDGIIKRIENMTLKKPKTFHKNQRRVFRAPDLKGMLDMFRELTDARRYWVDVTLAPNNISHAVIAEDKRQVSSRNPQIMYGARGTRFTFPSFTNFNYCTGVLGSQSITSGKHYWEVDVSKKSAWILGVCAGFQSDAMYNIEQNENYQPKYGYWVIGLQEGVKYSVFQDGSSHTPFAPFIVPLSVIICPDRVGVFVDYEACTVSFFNITNHGFLIYKFSQCSFSKPVFPYLNPRKCTVPMTLCSPSS [rhesus TRIM5α, 332-344 = GARGTRFTFPSFT]”, the enrichment is 1.22 ± 0.1.

Take “MASGILLNVKEEVTCPICLELLTEPLSLHCGHSFCQACITANHKKSMLYKEGERSCPVCRISYQPENIQPNRHVANIVEKLREVKLSPEEGQKVDHCARHGEKLLLFCQEDSKVICWLCERSQEHRGHHTFLMEEVAQEYHVKLQTALEMLRQKQQEAEKLEADIREEKASWKIQIDYDKTNVSADFEQLREILDWEESNELQNLEKEEEDILKSLTKSETEMVQQTQYMRELISELEHRLQGSMMDLLQGVDGIIKRIENMTLKKPKTFHKNQRRVFRAPDLKGMLDMFRELTDARRYWVDVTLAPNNISHAVIAEDKRQVSSRNPQIMYGARGTRFTFPSFVNFNYCTGVLGSQSITSGKHYWEVDVSKKSAWILGVCAGFQSDAMYNIEQNENYQPKYGYWVIGLQEGVKYSVFQDGSSHTPFAPFIVPLSVIICPDRVGVFVDYEACTVSFFNITNHGFLIYKFSQCSFSKPVFPYLNPRKCTVPMTLCSPSS [rhesus TRIM5α, 332-344 = GARGTRFTFPSFV]”: the enrichment worked out at 1.66 ± 1.2.

As for “MASGILLNVKEEVTCPICLELLTEPLSLHCGHSFCQACITANHKKSMLYKEGERSCPVCRISYQPENIQPNRHVANIVEKLREVKLSPEEGQKVDHCARHGEKLLLFCQEDSKVICWLCERSQEHRGHHTFLMEEVAQEYHVKLQTALEMLRQKQQEAEKLEADIREEKASWKIQIDYDKTNVSADFEQLREILDWEESNELQNLEKEEEDILKSLTKSETEMVQQTQYMRELISELEHRLQGSMMDLLQGVDGIIKRIENMTLKKPKTFHKNQRRVFRAPDLKGMLDMFRELTDARRYWVDVTLAPNNISHAVIAEDKRQVSSRNPQIMYGARGTRFTFPSLTNFNYCTGVLGSQSITSGKHYWEVDVSKKSAWILGVCAGFQSDAMYNIEQNENYQPKYGYWVIGLQEGVKYSVFQDGSSHTPFAPFIVPLSVIICPDRVGVFVDYEACTVSFFNITNHGFLIYKFSQCSFSKPVFPYLNPRKCTVPMTLCSPSS [rhesus TRIM5α, 332-344 = GARGTRFTFPSLT]”, the enrichment amounted to 0.805 ± 0.046.
